# Data taken from the supplement of paper PMC8728848.
# This is one part of the list.
# B1: OGAA (protein)
# chain: MVQKESQATLEERESELSSNPAASAGASLEPPAAPAPGEDNPAGAGGAAVAGAAGGARRFLCGVVEGFYGRPWVMEQRKELFRRLQKWELNTYLYAPKDDYKHRMFWREMYSVEEAEQLMTLISAAREYEIEFIYAISPGLDITFSNPKEVSTLKRKLDQVSQFGCRSFALLFADIDHNMCAADKEVFSSFAHAQVSITNEIYQYLGEPETFLFCPTEYCGTFCYPNVSQSPYLRTVGEKLLPGIEVLWTGPKVVSKEIPVESIEEVSKIIKRAPVIWDNIHANDYDQKRLFLGPYKGRSTELIPRLKGVLTNPNCEFEANYVAIHTLATWYKSNMNGVRKDVVMTDSEDSTVSIQIKLENEGSDEDIETDVLYSPQMALKLALTEWLQEFGVPHQY
# Key:
# Assay in all cases: glycan array binding signal (z-score within array); higher = stronger binding
# Settings in all cases: glycan notation: IUPAC condensed, linker removed
# Gal6S(b1-4)Glc6S = target: Gal6S(b1-4)Glc6S
# How it was run: (§1)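 From the Consortium for Functional Glycomics database, 3228 arrays were curated, keeping only those whose protein sequence was available. Binding is given as a within-array Z-score averaged across arrays sharing a protein sequence and across linkers. Negative Z-scores can be read as non-binding.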
# Gal6S(b1-4)GlcNAc = target: Gal6S(b1-4)GlcNAc
# How it was run: as §1
# Gal6S(b1-4)GlcNAc6S = target: Gal6S(b1-4)GlcNAc6S
# How it was run: as §1
# GalNAc(a1-3)Gal = target: GalNAc(a1-3)Gal
# How it was run: as §1
# GalNAc(a1-3)GalNAc = target: GalNAc(a1-3)GalNAc
# How it was run: as §1
# [1] = target: GalNAc(a1-3)GalNAc(b1-3)Gal(a1-4)Gal(b1-4)Glc
# How it was run: as §1
# [2] = target: GalNAc(a1-3)GalNAc(b1-3)Gal(a1-4)Gal(b1-4)GlcNAc
# How it was run: as §1
# GalNAc(b1-3)Gal = target: GalNAc(b1-3)Gal
# How it was run: as §1
# [3] = target: GalNAc(b1-3)Gal(a1-4)Gal(b1-4)GlcNAc
# How it was run: as §1
# [4] = target: GalNAc(b1-3)Gal(a1-4)Gal(b1-4)GlcNAc(b1-3)Gal(b1-4)Glc
# How it was run: as §1
# [5] = target: GalNAc(b1-3)Gal(a1-6)Gal(b1-4)Glc
# How it was run: as §1
# GalNAc(b1-3)GalNAc = target: GalNAc(b1-3)GalNAc
# How it was run: as §1
# GalNAc(b1-3)GlcNAc = target: GalNAc(b1-3)GlcNAc
# How it was run: as §1
# GalNAc(b1-4)Gal(b1-4)Glc = target: GalNAc(b1-4)Gal(b1-4)Glc
# How it was run: as §1
# GalNAc(b1-4)GlcNAc = target: GalNAc(b1-4)GlcNAc
# How it was run: as §1
# [6] = target: GalNAc(b1-4)GlcNAc(b1-2)Man
# How it was run: as §1
# [7] = target: GalNAc(b1-4)GlcNAc(b1-2)Man(a1-3)[GalNAc(b1-4)GlcNAc(b1-2)Man(a1-6)]Man(b1-4)GlcNAc(b1-4)GlcNAc
# How it was run: as §1
# [8] = target: GalNAc(b1-4)GlcNAc(b1-3)GalNAc(b1-4)GlcNAc
# How it was run: as §1
# GalNAc(b1-4)GlcNAc6S = target: GalNAc(b1-4)GlcNAc6S
# How it was run: as §1
# GalNAc(b1-6)GalNAc = target: GalNAc(b1-6)GalNAc
# How it was run: as §1
# GalNAc3S(b1-4)GlcNAc = target: GalNAc3S(b1-4)GlcNAc
# How it was run: as §1
# GalNAc3S(b1-4)GlcNAc3S = target: GalNAc3S(b1-4)GlcNAc3S
# How it was run: as §1
# [9] = target: GalNAc3S(b1-4)[Fuc(a1-3)]GlcNAc
# How it was run: as §1
# GalNAc4S6S(b1-4)GlcNAc = target: GalNAc4S6S(b1-4)GlcNAc
# How it was run: as §1
# GalNAc6S(b1-4)GlcNAc = target: GalNAc6S(b1-4)GlcNAc
# How it was run: as §1
# Glc(a1-4)Glc = target: Glc(a1-4)Glc
# How it was run: as §1
# [10] = target: Glc(a1-4)Glc(a1-4)Glc(a1-4)Glc
# How it was run: as §1
# Glc(a1-6)Glc(a1-6)Glc = target: Glc(a1-6)Glc(a1-6)Glc
# How it was run: as §1
# [11] = target: Glc(a1-6)Glc(a1-6)Glc(a1-6)Glc
# How it was run: as §1
# Glc(b1-4)Glc = target: Glc(b1-4)Glc
# How it was run: as §1
# Glc(b1-6)Glc = target: Glc(b1-6)Glc
# How it was run: as §1
# GlcA(b1-3)Gal = target: GlcA(b1-3)Gal
# How it was run: as §1
# GlcA(b1-3)GlcNAc = target: GlcA(b1-3)GlcNAc
# How it was run: as §1
# GlcA(b1-6)Gal = target: GlcA(b1-6)Gal
# How it was run: as §1
# [12] = target: GlcA3S(b1-3)Gal(b1-4)GlcNAc(b1-2)Man
# How it was run: as §1
# [13] = target: GlcA3S(b1-3)Gal(b1-4)GlcNAc(b1-3)Gal(b1-4)Glc
# How it was run: as §1
# [14] = target: GlcNAc(a1-3)Gal(b1-4)GlcNAc
# How it was run: as §1
# [15] = target: GlcNAc(a1-4)Gal(b1-3)GlcNAc
# How it was run: as §1
# [16] = target: GlcNAc(a1-4)Gal(b1-4)GalNAc
# How it was run: as §1
# [17] = target: GlcNAc(a1-4)Gal(b1-4)GlcNAc
# How it was run: as §1
# [18] = target: GlcNAc(a1-4)Gal(b1-4)GlcNAc(b1-3)Gal(b1-4)Glc
# How it was run: as §1
# [19] = target: GlcNAc(a1-4)Gal(b1-4)GlcNAc(b1-3)Gal(b1-4)GlcNAc
# How it was run: as §1
# [20] = target: GlcNAc(a1-4)Gal(b1-4)GlcNAc(b1-3)Gal(b1-4)GlcNAc(b1-3)Gal(b1-4)GlcNAc
# How it was run: as §1
# [21] = target: GlcNAc(a1-4)Gal(b1-4)GlcNAc(b1-3)Gal(b1-4)[Fuc(a1-3)]GlcNAc(b1-3)Gal(b1-4)[Fuc(a1-3)]GlcNAc
# How it was run: as §1
# [22] = target: GlcNAc(a1-6)Gal(b1-4)GlcNAc
# How it was run: as §1
binder,measurement,setting,value
B1,glycan array binding signal (z-score),Gal6S(b1-4)Glc6S,-0.034
same,glycan array binding signal (z-score),Gal6S(b1-4)GlcNAc,0.096
same,glycan array binding signal (z-score),Gal6S(b1-4)GlcNAc6S,-0.024
same,glycan array binding signal (z-score),GalNAc(a1-3)Gal,-0.087
same,glycan array binding signal (z-score),GalNAc(a1-3)GalNAc,-0.119
same,glycan array binding signal (z-score),[1],-0.089
same,glycan array binding signal (z-score),[2],-0.071
same,glycan array binding signal (z-score),GalNAc(b1-3)Gal,-0.039
same,glycan array binding signal (z-score),[3],-0.056
same,glycan array binding signal (z-score),[4],-0.076
same,glycan array binding signal (z-score),[5],-0.032
same,glycan array binding signal (z-score),GalNAc(b1-3)GalNAc,-0.106
same,glycan array binding signal (z-score),GalNAc(b1-3)GlcNAc,-0.083
same,glycan array binding signal (z-score),GalNAc(b1-4)Gal(b1-4)Glc,-0.096
same,glycan array binding signal (z-score),GalNAc(b1-4)GlcNAc,-0.072
same,glycan array binding signal (z-score),[6],-0.121
same,glycan array binding signal (z-score),[7],-0.075
same,glycan array binding signal (z-score),[8],-0.095
same,glycan array binding signal (z-score),GalNAc(b1-4)GlcNAc6S,-0.11
same,glycan array binding signal (z-score),GalNAc(b1-6)GalNAc,-0.063
same,glycan array binding signal (z-score),GalNAc3S(b1-4)GlcNAc,-0.005
same,glycan array binding signal (z-score),GalNAc3S(b1-4)GlcNAc3S,-0.109
same,glycan array binding signal (z-score),[9],-0.054
same,glycan array binding signal (z-score),GalNAc4S6S(b1-4)GlcNAc,-0.099
same,glycan array binding signal (z-score),GalNAc6S(b1-4)GlcNAc,-0.082
same,glycan array binding signal (z-score),Glc(a1-4)Glc,-0.014
same,glycan array binding signal (z-score),[10],0.179
same,glycan array binding signal (z-score),Glc(a1-6)Glc(a1-6)Glc,0.016
same,glycan array binding signal (z-score),[11],-0.081
same,glycan array binding signal (z-score),Glc(b1-4)Glc,-0.071
same,glycan array binding signal (z-score),Glc(b1-6)Glc,-0.129
same,glycan array binding signal (z-score),GlcA(b1-3)Gal,-0.051
same,glycan array binding signal (z-score),GlcA(b1-3)GlcNAc,-0.042
same,glycan array binding signal (z-score),GlcA(b1-6)Gal,-0.108
same,glycan array binding signal (z-score),[12],-0.052
same,glycan array binding signal (z-score),[13],-0.025
same,glycan array binding signal (z-score),[14],-0.092
same,glycan array binding signal (z-score),[15],-0.011
same,glycan array binding signal (z-score),[16],-0.102
same,glycan array binding signal (z-score),[17],-0.081
same,glycan array binding signal (z-score),[18],-0.078
same,glycan array binding signal (z-score),[19],0.022
same,glycan array binding signal (z-score),[20],-0.09
same,glycan array binding signal (z-score),[21],0.075
same,glycan array binding signal (z-score),[22],-0.081
